The list shows a part of the results.
Key:
Assay in all cases: glycan array binding signal (z-score within array); higher = stronger binding
Details in all cases: glycan notation: IUPAC condensed, linker removed
[1] = target: GlcNAc(b1-2)[GlcNAc(b1-6)]Man(a1-6)[GlcNAc(b1-2)Man(a1-3)]Man(b1-4)GlcNAc(b1-4)GlcNAc
Procedure, shortened: (§1)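 Columns mapping to the same glycan were averaged after glycan names were converted to IUPAC-condensed notation. The data come from 3228 arrays in the Consortium for Functional Glycomics database, limited to those with an available protein sequence. Binding is reported as a within-array Z-score averaged across arrays of one protein sequence and across linkers.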

[2] = target: GlcNAc(b1-2)[GlcNAc(b1-6)]Man(a1-6)[GlcNAc(b1-2)Man(a1-3)]Man(b1-4)GlcNAc(b1-4)[Fuc(a1-6)]GlcNAc
Procedure, shortened: as §1

[3] = target: GlcNAc(b1-2)[GlcNAc(b1-6)]Man(a1-6)[GlcNAc(b1-4)][GlcNAc(b1-2)Man(a1-3)]Man(b1-4)GlcNAc(b1-4)GlcNAc
Procedure, shortened: as §1

GlcNAc(b1-3)Fuc = target: GlcNAc(b1-3)Fuc
Procedure, shortened: as §1

GlcNAc(b1-3)Gal = target: GlcNAc(b1-3)Gal
Procedure, shortened: as §1

[4] = target: GlcNAc(b1-3)Gal(b1-3)GalNAc
Procedure, shortened: as §1

GlcNAc(b1-3)Gal(b1-4)Glc = target: GlcNAc(b1-3)Gal(b1-4)Glc
Procedure, shortened: as §1

[5] = target: GlcNAc(b1-3)Gal(b1-4)GlcNAc
Procedure, shortened: as §1

[6] = target: GlcNAc(b1-3)Gal(b1-4)GlcNAc(b1-2)Man(a1-3)[GlcNAc(b1-3)Gal(b1-4)GlcNAc(b1-2)Man(a1-6)]Man(b1-4)GlcNAc(b1-4)GlcNAc
Procedure, shortened: as §1

[7] = target: GlcNAc(b1-3)Gal(b1-4)GlcNAc(b1-2)Man(a1-3)[GlcNAc(b1-3)Gal(b1-4)GlcNAc(b1-2)Man(a1-6)]Man(b1-4)GlcNAc(b1-4)[Fuc(a1-6)]GlcNAc
Procedure, shortened: as §1

[8] = target: GlcNAc(b1-3)Gal(b1-4)GlcNAc(b1-2)[GlcNAc(b1-3)Gal(b1-4)GlcNAc(b1-6)]Man(a1-6)[GlcNAc(b1-3)Gal(b1-4)GlcNAc(b1-2)Man(a1-3)]Man(b1-4)GlcNAc(b1-4)GlcNAc
Procedure, shortened: as §1

[9] = target: GlcNAc(b1-3)Gal(b1-4)GlcNAc(b1-3)Gal(b1-4)GlcNAc
Procedure, shortened: as §1

[10] = target: GlcNAc(b1-3)Gal(b1-4)GlcNAc(b1-3)Gal(b1-4)GlcNAc(b1-2)Man(a1-3)[GlcNAc(b1-3)Gal(b1-4)GlcNAc(b1-3)Gal(b1-4)GlcNAc(b1-2)Man(a1-6)]Man(b1-4)GlcNAc(b1-4)GlcNAc
Procedure, shortened: as §1

[11] = target: GlcNAc(b1-3)Gal(b1-4)GlcNAc(b1-3)Gal(b1-4)GlcNAc(b1-2)Man(a1-3)[GlcNAc(b1-3)Gal(b1-4)GlcNAc(b1-3)Gal(b1-4)GlcNAc(b1-2)Man(a1-6)]Man(b1-4)GlcNAc(b1-4)[Fuc(a1-6)]GlcNAc
Procedure, shortened: as §1

[12] = target: GlcNAc(b1-3)Gal(b1-4)GlcNAc(b1-3)Gal(b1-4)GlcNAc(b1-2)[GlcNAc(b1-3)Gal(b1-4)GlcNAc(b1-3)Gal(b1-4)GlcNAc(b1-6)]Man(a1-6)[GlcNAc(b1-3)Gal(b1-4)GlcNAc(b1-3)Gal(b1-4)GlcNAc(b1-2)Man(a1-3)]Man(b1-4)GlcNAc(b1-4)[Fuc(a1-6)]GlcNAc
Procedure, shortened: as §1

[13] = target: GlcNAc(b1-3)Gal(b1-4)GlcNAc(b1-3)Gal(b1-4)GlcNAc(b1-3)Gal(b1-4)GlcNAc(b1-2)Man(a1-3)[GlcNAc(b1-3)Gal(b1-4)GlcNAc(b1-3)Gal(b1-4)GlcNAc(b1-3)Gal(b1-4)GlcNAc(b1-2)Man(a1-6)]Man(b1-4)GlcNAc(b1-4)GlcNAc
Procedure, shortened: as §1

[14] = target: GlcNAc(b1-3)Gal(b1-4)GlcNAc(b1-3)Gal(b1-4)GlcNAc(b1-3)Gal(b1-4)GlcNAc(b1-2)Man(a1-3)[GlcNAc(b1-3)Gal(b1-4)GlcNAc(b1-3)Gal(b1-4)GlcNAc(b1-3)Gal(b1-4)GlcNAc(b1-2)Man(a1-6)]Man(b1-4)GlcNAc(b1-4)[Fuc(a1-6)]GlcNAc
Procedure, shortened: as §1

[15] = target: GlcNAc(b1-3)Gal(b1-4)GlcNAc(b1-3)Gal(b1-4)GlcNAc(b1-3)Gal(b1-4)GlcNAc(b1-2)[GlcNAc(b1-3)Gal(b1-4)GlcNAc(b1-3)Gal(b1-4)GlcNAc(b1-3)Gal(b1-4)GlcNAc(b1-6)]Man(a1-6)[GlcNAc(b1-3)Gal(b1-4)GlcNAc(b1-3)Gal(b1-4)GlcNAc(b1-3)Gal(b1-4)GlcNAc(b1-2)Man(a1-3)]Man(b1-4)GlcNAc(b1-4)[Fuc(a1-6)]GlcNAc
Procedure, shortened: as §1

[16] = target: GlcNAc(b1-3)Gal(b1-4)GlcNAc(b1-3)Gal(b1-4)GlcNAc(b1-3)Gal(b1-4)GlcNAc(b1-3)Gal(b1-4)GlcNAc(b1-2)Man(a1-3)[GlcNAc(b1-3)Gal(b1-4)GlcNAc(b1-3)Gal(b1-4)GlcNAc(b1-3)Gal(b1-4)GlcNAc(b1-3)Gal(b1-4)GlcNAc(b1-2)Man(a1-6)]Man(b1-4)GlcNAc(b1-4)GlcNAc
Procedure, shortened: as §1

[17] = target: GlcNAc(b1-3)Gal(b1-4)GlcNAc(b1-3)Gal(b1-4)GlcNAc(b1-3)Gal(b1-4)GlcNAc(b1-3)Gal(b1-4)GlcNAc(b1-2)Man(a1-3)[GlcNAc(b1-3)Gal(b1-4)GlcNAc(b1-3)Gal(b1-4)GlcNAc(b1-3)Gal(b1-4)GlcNAc(b1-3)Gal(b1-4)GlcNAc(b1-2)Man(a1-6)]Man(b1-4)GlcNAc(b1-4)[Fuc(a1-6)]GlcNAc
Procedure, shortened: as §1

[18] = target: GlcNAc(b1-3)Gal(b1-4)GlcNAc(b1-3)Gal(b1-4)GlcNAc(b1-3)Gal(b1-4)GlcNAc(b1-3)Gal(b1-4)GlcNAc(b1-2)[GlcNAc(b1-3)Gal(b1-4)GlcNAc(b1-3)Gal(b1-4)GlcNAc(b1-3)Gal(b1-4)GlcNAc(b1-3)Gal(b1-4)GlcNAc(b1-6)]Man(a1-6)[GlcNAc(b1-3)Gal(b1-4)GlcNAc(b1-3)Gal(b1-4)GlcNAc(b1-3)Gal(b1-4)GlcNAc(b1-3)Gal(b1-4)GlcNAc(b1-2)Man(a1-3)]Man(b1-4)GlcNAc(b1-4)[Fuc(a1-6)]GlcNAc
Procedure, shortened: as §1

[19] = target: GlcNAc(b1-3)Gal(b1-4)GlcNAc(b1-3)Gal(b1-4)GlcNAc(b1-3)GalNAc
Procedure, shortened: as §1

[20] = target: GlcNAc(b1-3)Gal(b1-4)GlcNAc(b1-3)GalNAc
Procedure, shortened: as §1

[21] = target: GlcNAc(b1-3)Gal(b1-4)GlcNAc(b1-3)[GlcNAc(b1-3)Gal(b1-4)GlcNAc(b1-3)]GalNAc
Procedure, shortened: as §1

[22] = target: GlcNAc(b1-3)Gal(b1-4)GlcNAc(b1-6)[Gal(b1-3)]GalNAc
Procedure, shortened: as §1

[23] = target: GlcNAc(b1-3)Gal(b1-4)GlcNAc(b1-6)[GlcNAc(b1-3)Gal(b1-3)]GalNAc
Procedure, shortened: as §1

[24] = target: GlcNAc(b1-3)Gal(b1-4)GlcNAc(b1-6)[GlcNAc(b1-3)]Gal(b1-4)GlcNAc
Procedure, shortened: as §1

GlcNAc(b1-3)GalNAc = target: GlcNAc(b1-3)GalNAc
Procedure, shortened: as §1

GlcNAc(b1-3)Man = target: GlcNAc(b1-3)Man
Procedure, shortened: as §1

[25] = target: GlcNAc(b1-3)[GlcNAc(b1-4)][GlcNAc(b1-6)]GlcNAc
Procedure, shortened: as §1

[26] = target: GlcNAc(b1-3)[GlcNAc(b1-6)]Gal(b1-4)GlcNAc
Procedure, shortened: as §1

[27] = target: GlcNAc(b1-3)[GlcNAc(b1-6)]GalNAc
Procedure, shortened: as §1

[28] = target: GlcNAc(b1-4)Gal(b1-4)GlcNAc
Procedure, shortened: as §1

GlcNAc(b1-4)GlcNAc = target: GlcNAc(b1-4)GlcNAc
Procedure, shortened: as §1

[29] = target: GlcNAc(b1-4)GlcNAc(b1-4)GlcNAc
Procedure, shortened: as §1

[30] = target: GlcNAc(b1-4)GlcNAc(b1-4)GlcNAc(b1-4)GlcNAc(b1-4)GlcNAc
Procedure, shortened: as §1

[31] = target: GlcNAc(b1-4)GlcNAc(b1-4)GlcNAc(b1-4)GlcNAc(b1-4)GlcNAc(b1-4)GlcNAc
Procedure, shortened: as §1

[32] = target: GlcNAc(b1-4)[GlcNAc(b1-6)]GalNAc
Procedure, shortened: as §1

[33] = target: GlcNAc(b1-6)Gal(b1-4)GlcNAc
Procedure, shortened: as §1

GlcNAc(b1-6)GalNAc = target: GlcNAc(b1-6)GalNAc
Procedure, shortened: as §1

[34] = target: GlcNAc6S(b1-3)Gal(b1-4)GlcNAc
Procedure, shortened: as §1

Kdn(a2-3)Gal(b1-3)GalNAc = target: Kdn(a2-3)Gal(b1-3)GalNAc
Procedure, shortened: as §1

Kdn(a2-3)Gal(b1-3)GlcNAc = target: Kdn(a2-3)Gal(b1-3)GlcNAc
Procedure, shortened: as §1

Kdn(a2-3)Gal(b1-4)Glc = target: Kdn(a2-3)Gal(b1-4)Glc
Procedure, shortened: as §1

Kdn(a2-3)Gal(b1-4)GlcNAc = target: Kdn(a2-3)Gal(b1-4)GlcNAc
Procedure, shortened: as §1

B1: rMpL (Macrolepiota procera) (protein)
chain: MSTQVSSGRTYKITNVIAGTVIDLSGEDNKSIIGYPYHSGKNQQWTFNWTGKAWTLRSASSGSYLGIEGTPAGGTRLVAVNDPFEWHIWRDEANENAFRIFVPFTNYNLDLSGYGDTTPGTPVQLWWTWEGLHQTWTIDRP
[1]
  glycan array binding signal (z-score): -0.265
[2]
  glycan array binding signal (z-score): -0.033
[3]
  glycan array binding signal (z-score): -0.345
GlcNAc(b1-3)Fuc
  glycan array binding signal (z-score): -0.309
GlcNAc(b1-3)Gal
  glycan array binding signal (z-score): -0.345
[4]
  glycan array binding signal (z-score): -0.302
GlcNAc(b1-3)Gal(b1-4)Glc
  glycan array binding signal (z-score): -0.288
[5]
  glycan array binding signal (z-score): -0.335
[6]
  glycan array binding signal (z-score): -0.243
[7]
  glycan array binding signal (z-score): -0.295
[8]
  glycan array binding signal (z-score): -0.287
[9]
  glycan array binding signal (z-score): -0.322
[10]
  glycan array binding signal (z-score): 0.133
[11]
  glycan array binding signal (z-score): -0.081
[12]
  glycan array binding signal (z-score): -0.234
[13]
  glycan array binding signal (z-score): -0.27
[14]
  glycan array binding signal (z-score): -0.137
[15]
  glycan array binding signal (z-score): -0.217
[16]
  glycan array binding signal (z-score): -0.252
[17]
  glycan array binding signal (z-score): -0.17
[18]
  glycan array binding signal (z-score): -0.175
[19]
  glycan array binding signal (z-score): -0.263
[20]
  glycan array binding signal (z-score): -0.359
[21]
  glycan array binding signal (z-score): -0.278
[22]
  glycan array binding signal (z-score): -0.343
[23]
  glycan array binding signal (z-score): -0.303
[24]
  glycan array binding signal (z-score): -0.357
GlcNAc(b1-3)GalNAc
  glycan array binding signal (z-score): -0.376
GlcNAc(b1-3)Man
  glycan array binding signal (z-score): -0.225
[25]
  glycan array binding signal (z-score): -0.397
[26]
  glycan array binding signal (z-score): -0.345
[27]
  glycan array binding signal (z-score): -0.365
[28]
  glycan array binding signal (z-score): 0.163
GlcNAc(b1-4)GlcNAc
  glycan array binding signal (z-score): -0.314
[29]
  glycan array binding signal (z-score): -0.382
[30]
  glycan array binding signal (z-score): -0.298
[31]
  glycan array binding signal (z-score): -0.306
[32]
  glycan array binding signal (z-score): -0.342
[33]
  glycan array binding signal (z-score): -0.173
GlcNAc(b1-6)GalNAc
  glycan array binding signal (z-score): -0.31
[34]
  glycan array binding signal (z-score): 0.303
Kdn(a2-3)Gal(b1-3)GalNAc
  glycan array binding signal (z-score): -0.193
Kdn(a2-3)Gal(b1-3)GlcNAc
  glycan array binding signal (z-score): -0.339
Kdn(a2-3)Gal(b1-4)Glc
  glycan array binding signal (z-score): -0.476
Kdn(a2-3)Gal(b1-4)GlcNAc
  glycan array binding signal (z-score): -0.3

Reference: the supplement of paper PMC8728848
